This passage reports binding signal results from paper PMC12136788.

This is one part of the list.

T1: UNK ZnF1-3 (human, UniProt Q9C0B0 31-174)
T1 sequence: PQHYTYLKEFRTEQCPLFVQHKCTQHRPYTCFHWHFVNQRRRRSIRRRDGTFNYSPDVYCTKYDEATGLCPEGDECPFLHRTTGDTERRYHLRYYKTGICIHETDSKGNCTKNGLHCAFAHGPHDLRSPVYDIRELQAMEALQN

B1: chr2:18084439:18084440:+_ENSMUSG00000026743_ENSMUST00000114669|mus_hu|motif|central (ssRNA)
RNA: GGGAGUUCUACAGUCCGACGAUCGAGCAAUGUAGGAGAUUUCUGCAGACUAGAGCUUGUUAUGCUUCCUGCAGCUGAUGCGGCAGAUGAUGUUGGUGAAGCAGAAGAAACUGAGAGAUGAGAAACAUUCUCUUGAUUUUUGUUCAACAGAGGAUUGAGCAUCA
B2: chr2:183846084:183846085:-_ENSG00000061676_ENST00000360982|hu_mus|FALSE|FALSE (ssRNA)
RNA: GGGAGUUCUACAGUCCGACGAUCGAGGUAUUGCACGUAGUACCUCUGCAUGACAGGCCCAUACUUCCUGACAUGUGCUCUAAGCUCUUCCAUGUAAAAUAUUAGCUCAGCAAUGUGCUUAUCUAUAAAGUCAUCUGCACUCUUCAACAGAGGAUUGAGCAUCA
B3: chr9:53430067:53430068:-_ENSMUSG00000032030_ENSMUST00000166367|mus_mus|FALSE|FALSE (ssRNA)
RNA: GGGAGUUCUACAGUCCGACGAUCGGGUGAGUUGACUUGAGGGUCAUACAACAAAACUUGCCGUUUGAGCUUGGGAAAAGCUACUAAAGACCAUAAAGUCCUUCUAAGUUCAGCAUCUGGGAGUUCCGUUGCAAGUUUUAGAUUCAACAGAGGAUUGAGCAUCA
B4: chr2:198351390:198351391:-_ENSG00000144381_ENST00000345042|hu_hu|motif|central (ssRNA)
RNA: GGGAGUUCUACAGUCCGACGAUCUUAUUCUCACUCUCCACAGAAAGGCUGCUUAACUUCUCAUCUGGUGGUGGCAAGCACGGAAAUCCUGAUUUUAACAGAAUAGUAGUAAAAAUGCCUCAGUGAUUUAAGUUGAAAGCAGUACAACAGAGGAUUGAGCAUCA
B5: chr12:48362563:48362564:+_ENSG00000134291_ENST00000256686|hu_hu|hu_hu_hu_mus_False|8_108 (ssRNA)
RNA: GGGAGUUCUACAGUCCGACGAUCUCCGAAGGGUGAAUCGAUAGACCCUUGCGGGGGAAACUGUAAUCACUUUGUAUGGGGAAGGAAAAGAAACGCCAAAAACUUUCCAAAAAGCGGGGGUGGGGUGUCCCAGGCCUGGGAGGUCAACAGAGGAUUGAGCAUCA
B6: chr14:103969519:103969520:+_ENSG00000075413_ENST00000216288|hu_hu|motif|central (ssRNA)
RNA: GGGAGUUCUACAGUCCGACGAUCAUCACUGGGUUACAGCUUUAGCUCAUUGGCAAUUUUGGAAGCAAUAUUUUUGAAGGCGGUGGAUGUCCCCGAUAUCCGCUUAAACCGGACCCCGUUCAGAGACAGUCUUGGCAGCUUGCACAACAGAGGAUUGAGCAUCA
B7: chr14:22664367:22664368:+_ENSMUSG00000021771_ENSMUST00000022293|mus_mus|motif|central (ssRNA)
RNA: GGGAGUUCUACAGUCCGACGAUCAGACAGUGUAAGCUUCACACCAGGCCUCAGAGUCUGAGUAUAGCCCACUCCAAUUAAACGGGAGUUGUUGACCUUUGCAGAGAUAGAAGCAGUAGGAUCCAACUGGUAUUUAGCUGCAAUCAACAGAGGAUUGAGCAUCA
B8: chr4:1729744:1729745:+_ENSG00000013810_ENST00000313288|hu_hu|FALSE|FALSE (ssRNA)
RNA: GGGAGUUCUACAGUCCGACGAUCGGACUCUGUCCUGCAAGGGUCUUCUAGGGUCUCAGAGGCGGGUGUCACUCUUCUGUCUAAGGAAUAGGAACUAAGGUUUUCCUCCACGGCUUGCUCAGGGCUGCCAGACACUUUUCCUGGCAACAGAGGAUUGAGCAUCA
B9: chr5:138699528:138699529:+_ENSG00000120727_ENST00000265192|hu_hu|motif|central (ssRNA)
RNA: GGGAGUUCUACAGUCCGACGAUCGUCAUCUUCAUGAGAAUGACCGUUAAUAAUCACAUCUUCAUUGAUGAUGCUUGGGCGGGUACUGCUGCGACUUGGAUCUUUCAUGGCUGAUGUUGGUUGUCGUUUUUAACCCAAUGCACACAACAGAGGAUUGAGCAUCA
B10: chr17:65740002:65740003:+_ENSG00000130935_ENST00000581375|hu_hu|hu_hu_hu_mus_False|38_58 (ssRNA)
RNA: GGGAGUUCUACAGUCCGACGAUCAACAAAUCUUUCUUCCCUGGACGAACAGGAAGAUUCAUAUUAAAAAAAAUAUAUGUCUAUGAAGUUAGGUGUGUAAUAUCAGACUUUACUCCCAGCACUUUGGGAGGUGGAUCUCUGAGUCAACAGAGGAUUGAGCAUCA
B11: chr11:47008823:47008824:+_ENSG00000149179_ENST00000278460|hu_mus|FALSE|FALSE (ssRNA)
RNA: GGGAGUUCUACAGUCCGACGAUCUCCUUGGCAUACGCUGUUAAAAUAGUCAGUGAAGAACCGGGCAAUGCCAUACUGGCUAAUAUCCUCCCUGUUCUCCAGCAGCUGGCACACUGCAUCCUCCAUGUACGUGAGGACAUGUCUCAACAGAGGAUUGAGCAUCA
B12: 183116090_183117748_1239_CDS_ENSMUSG00000038733_ENSMUST00000162963|mouse|control|control (ssRNA)
RNA: GGGAGUUCUACAGUCCGACGAUCCUGACCACGCUGACCUCCCGUCACAAAGCGUUUCCCAUCUGGAUUCCAGGCCACACUGGUCAAACUGUCUUCAUGAGAUUGGCUCAUUUUUGUUCUUAAUUCUCCCGUCUGUACAUUCCACAACAGAGGAUUGAGCAUCA
B13: 21196780_21198168_765_CDS_ENSMUSG00000032178_ENSMUST00000067646|mouse|control|control (ssRNA)
RNA: GGGAGUUCUACAGUCCGACGAUCGACUGAUAGCGUUUCUCCAGCUAAUACUUUCUCCAUUUCUUCUCUGACAACAGGGGAGGUCAGAUGGAUGGUCAAGGACAAGGGGGGCUCUUUUGUGUUUUUUAUCACAAUCGCAGCAUCCAACAGAGGAUUGAGCAUCA
B14: chr10:33190432:33190433:-_ENSG00000150093_ENST00000302278|hu_mus|hu_hu_hu_mus_True|18_78 (ssRNA)
RNA: GGGAGUUCUACAGUCCGACGAUCUACAUUUUCCAAACCUGCAUGUGAAUAAAACCCUGGCAAUAUUGCCCCAAAACUACCCUACUGUGACUAAGAUGCUGCUGCUGUGAGCUUGGUUGUUGUGGGACCGCCUGAGUAGGAUUCCAACAGAGGAUUGAGCAUCA

The target of this assay is T1, UNK ZnF1-3. Kind of assay: nsRBNS (natural sequence RNA bind-n-seq); RBNS binding buffer (assumed for nsRBNS): 25 mM Tris pH 7.5, 150 mM KCl, 3 mM MgCl2, 0.01% Triton X-100, 500 ug/ml BSA, 20 U/ml SUPERase-In, 4 C; UNK is unkempt and MSI1 is Musashi-1; names of the RNAs are library labels; protein concentration not given here; high values mean tight binding.
B1 displayed a binding signal of 1.17 enrichment R.

Molecule B2 yielded a binding signal of 0.799 enrichment R.

As for B3, the binding signal came out at 1.28 enrichment R.

B4: the binding signal is 1.56 enrichment R.

For B5, the binding signal came to 2.55 enrichment R.

The molecule B6 returned a binding signal of 1 enrichment R.

Turning to B7, the binding signal turned out to be 1.36 enrichment R.

B8 gave a binding signal of 0.831 enrichment R.

Take B9: the binding signal amounted to 0.599 enrichment R.

B10 yielded a binding signal of 1.72 enrichment R.

In turn, B11 came in with a binding signal of 0.72 enrichment R.

In turn, B12 had a binding signal of 0.785 enrichment R.

Regarding B13, the binding signal was found to be 1.1 enrichment R.

On to B14, for which the binding signal turned out to be 1.19 enrichment R.
